Test results from PMC6919601, “Identification of Plasmodium dipeptidyl aminopeptidase allosteric inhibitors by high throughput screening” (PLoS ONE, 2019).
Hit rate of the full screen: of about 110,000 compounds, about 230 (0.21%) showed an effect of 50% or more. The list shows a part of the results.

These compounds were tested against DPAP1 (Plasmodium falciparum, UniProt Q8IIJ9) (assay: primary screen, percent inhibition; read by cleavage of a fluorogenic dipeptide substrate; higher = more effect of the substance).
Parameters: species or system P. falciparum D10 trophozoite lysates; single well
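Also: 30 min substrate incubation versus DMSO and 10 µM JCP410 controls.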

DPAP1, sequence (Q8IIJ9 whole entry, looked up): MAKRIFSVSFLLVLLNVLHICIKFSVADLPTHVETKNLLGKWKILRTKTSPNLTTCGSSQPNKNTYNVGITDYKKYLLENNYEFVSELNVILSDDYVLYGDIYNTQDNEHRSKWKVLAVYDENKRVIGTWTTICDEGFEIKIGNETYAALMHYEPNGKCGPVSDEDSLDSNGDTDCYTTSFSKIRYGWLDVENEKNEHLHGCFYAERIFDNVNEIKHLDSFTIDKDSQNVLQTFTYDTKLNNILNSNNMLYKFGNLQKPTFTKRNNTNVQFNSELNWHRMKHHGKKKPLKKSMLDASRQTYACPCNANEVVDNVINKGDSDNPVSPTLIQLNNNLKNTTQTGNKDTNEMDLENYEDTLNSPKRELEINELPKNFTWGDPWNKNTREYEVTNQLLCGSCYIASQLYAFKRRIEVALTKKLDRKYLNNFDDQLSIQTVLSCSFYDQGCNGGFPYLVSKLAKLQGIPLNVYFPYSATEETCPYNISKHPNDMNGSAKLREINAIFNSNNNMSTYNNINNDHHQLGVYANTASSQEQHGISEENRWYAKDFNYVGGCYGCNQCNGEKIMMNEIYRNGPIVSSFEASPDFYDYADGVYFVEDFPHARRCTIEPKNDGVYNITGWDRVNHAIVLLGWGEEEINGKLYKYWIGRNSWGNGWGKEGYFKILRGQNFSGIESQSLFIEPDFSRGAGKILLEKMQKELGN

Going from O=C(/C=C/c1ccco1)N(Cc1cccc(F)c1)C1CCS(=O)(=O)C1 (centres unmarked) to O=C(c1ccco1)N1CCN(C(=O)c2c(F)cccc2F)CC1, the “% Inhibition @ 10 uM” value rises from -1.35% to 2.22%.

Compared with Cc1ccc(-c2cn3nc(N4CCC(C(=O)NC(C)C)CC4)sc3n2)cc1, COc1ccc(S(=O)(=O)N2CCC(C(=O)O)CC2)cc1 is lower in “% Inhibition @ 10 uM” value: 2.22% for the first, -3.74% for the second.

Going from CCOC(=O)c1sc2nc(-c3ccccc3)ccc2c1N to CCOC(=O)c1cccc(Cn2nnc3sc(-c4ccccc4)cc3c2=O)c1, the “% Inhibition @ 10 uM” value rises from 3.03% to 7.04%.

Going from Cn1c(=O)c2c(c3ccccc31)OC(C)(C)CC2 to Cn1c2ccccc2c2cnn(CC(=O)NCCCN3CCOCC3)c(=O)c21, the “% Inhibition @ 10 uM” value rises from -1.06% to -0.439%.

First: Clc1ccccc1-c1nnc(-c2ccc(-c3ccccc3)cc2)o1
Second: CC(Nc1nc2c(S(=O)(=O)c3ccc(Cl)cc3)nnn2c2ccccc12)c1ccccc1 (centres unmarked)
The “% Inhibition @ 10 uM” value of the first is lower: -8.01% for the first, -6.68% for the second.

First: CCN1C(=O)N/C(=C/c2ccc(-c3ccc(C(=O)O)cc3C)o2)C1=O
Second: COc1ccc(-n2c(C)cc(C)c(C(C)=O)c2=O)cc1
The “% Inhibition @ 10 uM” value of the first is higher: -0.334% for the first, -11.5% for the second.

First: O=C(Nc1ccc2nn(-c3ccc(Br)cc3)nc2c1)c1ccc2c(c1)OCCO2
Second: COc1c(Cl)cc(Cl)cc1C(=O)Nc1ccc(Br)cc1
The “% Inhibition @ 10 uM” value of the first is lower: -4.59% for the first, 0.989% for the second.

First: O=Cc1cn(Cc2cccc(Cl)c2)c2ccccc12
Second: N#C/C(=C\c1cn(Cc2ccccc2Cl)c2ccccc12)c1nn(CCO)c(N)c1C#N
The “% Inhibition @ 10 uM” value of the first is lower: -6.4% for the first, -1.84% for the second.

Going from CC1(C)CC2(CC(C)(C)N1)OC(=O)N(CCCO)C2(C)O (centres unmarked) to Cc1nc2cc(NC(=O)N3CC4(C)CC3CC(C)(C)C4)ccc2n1C (centres unmarked), the “% Inhibition @ 10 uM” value falls from 4.61% to -2.17%.

First: Cn1c(=O)c2sccc2n2c(CCC(=O)N3CCN(c4ccccn4)CC3)nnc12
Second: COc1cccc(N(CC(=O)N2CCN(c3ccccc3F)CC2)S(=O)(=O)c2ccccc2)c1
The “% Inhibition @ 10 uM” value of the first is lower: -1.71% for the first, 2.01% for the second.

First: CN(CC(=O)NCc1ccccc1Cl)S(=O)(=O)c1cc(Cl)ccc1Cl
Second: CC(=O)c1cccc(NC(=O)CCCOc2ccc(Cl)cc2Cl)c1
The “% Inhibition @ 10 uM” value of the first is lower: -5.57% for the first, -4.39% for the second.

First: O=C(COc1ccc(Cl)cc1Cl)Nc1ccc(Br)cc1
Second: Cc1ccc(OCC(=O)Nc2ccc(S(=O)(=O)N3CCCC3)cc2)c(Br)c1
The “% Inhibition @ 10 uM” value of the first is lower: -5.62% for the first, 4.53% for the second.

Compared with Cc1nc2scc(C)n2c(=O)c1S(=O)(=O)NCCc1ccc(Cl)cc1, Cc1cccc2c1-c1sc(C(=O)NCCc3ccc(S(N)(=O)=O)cc3)cc1CO2 is lower in “% Inhibition @ 10 uM” value: 1.99% for the first, 0.291% for the second.

First: O/N=C(\c1ccccc1)c1cc2ccccc2o1
Second: CC(C)COc1ccc(/C(=N\O)c2ccccc2)cc1
The “% Inhibition @ 10 uM” value of the first is lower: -1.56% for the first, 1.33% for the second.

Going from O=C(c1ccco1)N1CCN(C2CC(=O)N(c3ccccc3)C2=O)CC1 (centres unmarked) to Cc1cc2ccccc2c(=O)n1CC(=O)NCC(=O)N1CCC(Cc2ccccc2)CC1, the “% Inhibition @ 10 uM” value falls from 11.6% to -0.363%.

First: COCCNc1ncnc2c1c(-c1ccccc1)cn2-c1cccc(Cl)c1
Second: Cc1cc(SCC(=O)NCc2ccccc2)n2nc(C)c(-c3ccc(Cl)cc3)c2n1
The “% Inhibition @ 10 uM” value of the first is higher: 2.72% for the first, 1.72% for the second.

First: O=C(/C=C/c1cccs1)Nc1ncc(Cc2cccc(C(F)(F)F)c2)s1
Second: COc1ccc(CC/N=C/C2C(=O)N(c3nc4ccccc4s3)N=C2C(F)(F)F)cc1OC (centres unmarked)
The “% Inhibition @ 10 uM” value of the first is higher: -1.92% for the first, -4.24% for the second.

Going from CCOc1ccccc1NC(=O)c1ccccn1 to Cc1ccccc1NC(=O)c1ccc(OC(C)C)cc1, the “% Inhibition @ 10 uM” value falls from 5.69% to -3.94%.

First: CN1CCC(NCc2ccccc2C(F)(F)F)CC1
Second: CN1CCC(N(C)CCCc2ccccc2)CC1
The “% Inhibition @ 10 uM” value of the first is lower: -4.95% for the first, 2.91% for the second.

Compared with CCOC(=O)c1ccc(CN(Cc2ccccc2)S(=O)(=O)c2ccc(OC)cc2)cc1, CCOC(=O)N1CCN(C(=O)CN(Cc2cccc(C)c2)S(=O)(=O)c2ccc(Cl)cc2)CC1 is higher in “% Inhibition @ 10 uM” value: -1.99% for the first, 0.408% for the second.

First: COc1cccc(OC)c1OCCN1CCCCC1
Second: O=[N+]([O-])c1ccccc1OCCCN1CCCCC1
The “% Inhibition @ 10 uM” value of the first is lower: -1.42% for the first, 1.62% for the second.

Going from Cc1nn(-c2ccccc2)c2c1C(c1ccc(Br)cc1)C(C#N)=C(N)O2 (centres unmarked) to N#CC1=C(N)Oc2cc(O)ccc2C1c1cc(Br)cs1 (centres unmarked), the “% Inhibition @ 10 uM” value rises from -5.41% to 5.08%.

Going from Cc1c(Cl)cccc1NC(=O)[C@@H]1C[C@@H]1c1ccccc1 to COc1ccccc1CNC(=O)c1cccc2ccccc12, the “% Inhibition @ 10 uM” value falls from 6.18% to -3.03%.

First: COCCNC(=O)CSCc1nc(-c2ccc(OC)cc2)oc1C
Second: Cc1ccc(-c2nc(CS(=O)(=O)CC(=O)NCc3ccccc3)c(C)o2)cc1
The “% Inhibition @ 10 uM” value of the first is higher: -1.05% for the first, -9.55% for the second.

First: O=C1c2n[nH]c(-c3ccccc3O)c2C(c2cccc(Br)c2)N1Cc1ccco1 (centres unmarked)
Second: O=C(CN1C(=O)c2ccccc2S1(=O)=O)NCCSCc1ccco1
The “% Inhibition @ 10 uM” value of the first is higher: -1.35% for the first, -2.34% for the second.

Compared with C=CCNC(=O)/C(C#N)=C/c1c(Oc2cccc(C)c2)nc2c(C)cccn2c1=O, COC(=O)/C(C#N)=C/c1c(Oc2ccc(C)cc2C)nc2ccccn2c1=O is higher in “% Inhibition @ 10 uM” value: -1.43% for the first, 2% for the second.

Compared with CC(=O)N1c2c(ccc3ccccc23)C(C)CC12CCCCC2 (centres unmarked), CCC(Sc1nc(NC2CCCCC2)c2ccccc2n1)C(=O)NCCCOC (centres unmarked) is lower in “% Inhibition @ 10 uM” value: 4.26% for the first, -4.01% for the second.

Going from O=C1C2CC=CCC2C(=O)N1CCc1ccccc1Cl (centres unmarked) to COc1ccccc1CN1C(=O)c2ccncc2C1=O, the “% Inhibition @ 10 uM” value rises from -6.5% to -1.08%.

First: Cc1ccc(N2C(=O)C3C4CCC(C4)C3C2=O)cc1 (centres unmarked)
Second: COc1ccc(N2C(=O)CC(N(C)CCc3ccc(OC)c(OC)c3)C2=O)cc1 (centres unmarked)
The “% Inhibition @ 10 uM” value of the first is higher: 3.1% for the first, -4.7% for the second.

Going from COCC(=O)Nc1ccc(C(C)C)cc1 to COc1cccc(N(CC(=O)Nc2ccc(C)c(C)c2)S(C)(=O)=O)c1, the “% Inhibition @ 10 uM” value falls from 2.65% to -1.43%.

First: O=C1CCCc2c1c1ccccc1c(=O)n2Cc1ccccc1
Second: CC12CN3CC(c4ccccc4)(CN(C1)C3c1c[nH]c3ccccc13)C2=O (centres unmarked)
The “% Inhibition @ 10 uM” value of the first is lower: -4.31% for the first, 1.25% for the second.

First: Cn1cccc1/C=C1/CCC(C2CCCC2)C1=O (centres unmarked)
Second: Fc1ccccc1CCNC1CN2CCC1CC2 (centres unmarked)
The “% Inhibition @ 10 uM” value of the first is lower: -5.51% for the first, -0.0953% for the second.

First: COc1ccc(/C=C(\C#N)C(=O)O)cc1
Second: COc1ccc(-c2[nH]nc3c2C(=O)CC(C)(C)C3)cc1
The “% Inhibition @ 10 uM” value of the first is higher: 2.59% for the first, 0.275% for the second.

Compared with Cc1nn(CC(=O)NCc2ccc3c(c2)OCO3)c(=O)c2cccn12, Cc1ccccc1OCc1nc(C#N)c(NCc2ccc3c(c2)OCO3)o1 is higher in “% Inhibition @ 10 uM” value: -7.17% for the first, -1.38% for the second.

Compared with O=C(COc1ccc(N2C(=O)C3=C(CCCC3)C2=O)cc1)N1CCCCC1, N#Cc1c2n(c3c(=O)n(Cc4ccc(Cl)cc4)cnc13)CCCCC2 is higher in “% Inhibition @ 10 uM” value: -6.25% for the first, 0.986% for the second.

Going from Cn1nnnc1SCC(=O)NCc1cccc(C(=O)O)c1 to CCCCCCOC(=O)Nc1nnc(Cc2ccccc2)s1, the “% Inhibition @ 10 uM” value rises from -1.43% to -0.546%.

First: Cc1cc(C)n(CCc2nc3c4ccccc4nc(NCc4ccc(F)cc4)n3n2)n1
Second: Cc1cc(C)n2nc[n+](CC(=O)c3ccccc3)c2n1
The “% Inhibition @ 10 uM” value of the first is higher: 0.981% for the first, -4.65% for the second.

Compared with O=C(N1CCN(c2ccccc2F)CC1)C12C[C@H]3C[C@@H](C1)C[C@@H](C2)C3, CCOC(=O)N1CCN(Cc2cccc(Cl)c2Cl)CC1 is higher in “% Inhibition @ 10 uM” value: -4.91% for the first, -0.0494% for the second.

Going from COc1ccc(CN2CCC(Cc3ccccc3)CC2)cc1Br to CCc1ccc(OCC(=O)Nc2ccc(S(=O)(=O)N3CCOCC3)cc2)c(Br)c1, the “% Inhibition @ 10 uM” value falls from 0.708% to -2.74%.

First: O=C(COc1ccccc1)N1CCN=C1c1ccccc1
Second: C1=C(c2ccccc2)C(N2CCOCC2)Oc2ccccc21 (centres unmarked)
The “% Inhibition @ 10 uM” value of the first is higher: 4.18% for the first, 1.78% for the second.

Compared with Cc1oc2ncn(C)c(=O)c2c1C(=O)NCCN(C)C, Cn1c(=O)c2c(ncn2CCCC(=N)N2CCOCC2)n(C)c1=O is higher in “% Inhibition @ 10 uM” value: -5.76% for the first, 5.66% for the second.

Going from Cc1ccc(-c2ccc(C(=O)N[C@@H](CC(C)C)C(=O)NCC#N)cc2)cc1C to CCOc1ccc(CCNC(=O)C(CC)n2nc(C)n3c(cc4sccc43)c2=O)cc1OCC (centres unmarked), the “% Inhibition @ 10 uM” value rises from -6.46% to 1.8%.

First: N#Cc1c(N)n(-c2ccccc2O)c2nc3ccccc3nc12
Second: COc1ccccc1-n1nnc(-c2nc(-c3cccnc3)no2)c1N
The “% Inhibition @ 10 uM” value of the first is higher: 3.9% for the first, 1.4% for the second.

Compared with COc1cc(CN(C(=O)/C(=C/c2cccnc2)NC(=O)c2ccccc2)C2CCCCC2)ccc1O, Brc1ccc(-c2cc(-c3ccccc3)nc(N3CCNCC3)n2)cc1 is higher in “% Inhibition @ 10 uM” value: -5% for the first, -0.239% for the second.

Going from CCSc1nc(C)c(Cc2cc(C)ccc2C)c(O)n1 to Cc1ccc(Nc2nc(-c3sc(C)nc3C)cs2)nc1, the “% Inhibition @ 10 uM” value falls from 9.78% to -1.69%.

First: CCCc1[nH]nc2c1C(c1ccc(O)c(O)c1)C(C#N)=C(N)O2 (centres unmarked)
Second: Cc1nc(-c2ccccc2)nc2oc3c(O)ncnc3c12
The “% Inhibition @ 10 uM” value of the first is lower: 0.751% for the first, 3.8% for the second.

Compared with CCCN(CCO)Cc1ccc(Br)cc1, COc1ccc(S(=O)(=O)NCCOCC(F)(F)F)cc1C is lower in “% Inhibition @ 10 uM” value: -0.0494% for the first, -6.53% for the second.

First: O=C(c1cc(Cl)cc(Cl)c1)N1CCN(C(=O)c2cc(Cl)cc(Cl)c2)CC1
Second: O=C(NCc1ccco1)c1cnc2ccc(S(=O)(=O)N3CCOCC3)cc2c1O
The “% Inhibition @ 10 uM” value of the first is higher: 2.6% for the first, -1.99% for the second.

Going from C1=CCC(CN2CCN(C/C=C/c3ccccc3)CC2)CC1 (centres unmarked) to CN1CCN(CCCNC(=O)C2C3C=CC4(CN(Cc5ccccc5Cl)C(=O)C24)O3)CC1 (centres unmarked), the “% Inhibition @ 10 uM” value rises from -2.02% to 3.33%.

Compared with CC(=O)Nn1nc2cc3nn[nH]c3cc2n1, NC(=O)c1nn2c(c1Br)NC(c1ccccc1)CC2C(F)(F)F (centres unmarked) is higher in “% Inhibition @ 10 uM” value: -1.29% for the first, 7.2% for the second.

In the case of CCOc1cc(/C=C2/SC(=O)N(CC(=O)N3CCOCC3)C2=O)ccc1OC(C)C, the “% Inhibition @ 10 uM” value is reported as 8.58%.
